# Patent EP4772530A1, “PEPTIDE TARGETING SOMATOSTATIN RECEPTOR, DRUG CONJUGATE AND USE THEREOF” (Mainline Biosciences (Shanghai) Co., Ltd., priority 2023, dated 2025)
# Experiments:
# NCI-H69 cells [1] = type: in vivo, Balb/c nude mice; settings: for Tumor Volume (Mean ± SEM): Example 4 22.8mpk
# NCI-H69 cells [2] = type: in vivo, Balb/c nude mice; settings: Example 4 53.7 mg/kg; for Tumor Volume (Mean): intravenous, 4 consecutive days of injection followed by 3 days of rest
# Experimental: Balb/c nude mice, 6-8 weeks old, female, sourced from Shanghai Jihui Laboratory Animal Care Co., Ltd.
# The cells were collected after they grew to the logarithmic growth phase, washed twice with serum-free medium, and resuspended in serum-free medium. The cells were then collected, counted, and inoculated.
# Each mouse was subcutaneously injected with 0.1 mL of NCI-H69 tumor cell suspension containing 50% Matrigel at right axilla (5.00 × 10^6/animal, with the day of administration designated as Day 0). When the tumor volume reached about 100 mm^3, mice were selected and randomly divided into groups (vehicle control and Example 4 treatment groups, with 6 animals per group) using Excel based on their tumor size and body weight. Each mouse received an intravenous injection of 5% DMSO + 95% normal saline or the drug of Example 4 (53.7 mg/kg), with 4 consecutive days of injection followed by 3 days of rest as a cycle.
# The mice were measured for body weight twice a week using an electronic balance. The tumor diameter was measured three times a week using a vernier caliper. The tumor volume was calculated as follows: V = 0.5×a×b^2, where a and b were the length and width of the tumor, respectively.
# Relative tumor proliferation rate: T/C (%) = TRTV /CRTV × 100%(RTV=Vt/V0). [formula]
# Tumor growth inhibition rate: TGI (%) = (1−T/C) × 100%. [formula]
# [3] = Example 4 22.8 mg/kg, 6 animals per group
smiles,measurement,setting,value
"CC[C@H](C)[C@@H]([C@@H](CC(=O)N1CCC[C@H]1[C@H](OC)[C@@H](C)C(=O)N[C@H](C)[C@@H](O)c1ccccc1)OC)N(C)C(=O)[C@@H](NC(=O)[C@H](C(C)C)N(C)C(=O)OCc1ccc(O[C@@H]2O[C@H](C(=O)O)[C@@H](O)[C@H](O)[C@H]2O)c(NC(=O)CCNC(=O)CCCCCN2C(=O)CC(SC[C@H](NC(C)=O)C(=O)NCCOCCOCC(=O)NCCOCCOCC(=O)NCCOCCOCC(=O)N[C@@H](CCCNC(=N)N)C(=O)N[C@@H](CCCNC(=N)N)C(=O)N[C@@H](CC(C)C)C(=O)N[C@@H](Cc3ccccc3)C(=O)N[C@H]3CSSC[C@@H](C(=O)N[C@H](C(=O)N[C@@H](Cc4c[nH]c5ccccc45)C(=O)N[C@@H](CCCNC(=N)N)C(=O)N[C@@H](CC(=O)O)C(N)=O)[C@@H](C)O)NC(=O)[C@H]([C@@H](C)O)NC(=O)[C@H](CCCCN)NC(=O)[C@@H](Cc4c[nH]c5ccccc45)NC(=O)[C@H](Cc4ccc(O)cc4)NC3=O)C2=O)c1)C(C)C (stereo partly drawn) [Example 4, Ac-Cys(MC-betaglucuronide-MMAE)-AEEA-AEEA-AEEA-Arg-Arg-Leu-Phe-[Cys-Tyr-D-Trp-Lys-Thr-Cys]-Thr-Trp-Arg-Asp-NH2] (I: Ac-C[AEEA][AEEA][AEEA]RRLFCY[dW]KTCTWRD-NH2 / II: [X1][NMeV]V[Dil][Dolaproine]-X2; linker I:1-II:N via X3; disulfide I:9-I:14)",TGI,"NCI-H69 cells [1]; By Day 32, Example 4 22.8 mg/kg, intravenous, twice a week",87.90%
same,tumor inhibition compared to the vehicle control group,"NCI-H69 cells [1]; By Day 32, Example 4 22.8 mg/kg, p< 0.001",significant tumor inhibition
same,Tumor Volume (Mean ± SEM),"NCI-H69 cells [1]; Day 18, intravenous, twice a week",149±11 mm3
same,Tumor Volume (Mean ± SEM),"NCI-H69 cells [1]; Day 21, intravenous, twice a week",187±24 mm3
same,Tumor Volume (Mean ± SEM),"NCI-H69 cells [1]; Day 25, intravenous, twice a week",150±44 mm3
same,Tumor Volume (Mean ± SEM),"NCI-H69 cells [1]; Day 28, intravenous, twice a week",149±47 mm3
same,Tumor Volume (Mean ± SEM),"NCI-H69 cells [1]; Day 32, intravenous, twice a week",114±36 mm3
same,Tumor Volume (Mean ± SEM),"NCI-H69 cells [1]; Day 35, intravenous, twice a week",85±24 mm3
same,Tumor Volume (Mean ± SEM),"NCI-H69 cells [1]; Day 39, intravenous, twice a week",40±12 mm3
same,Tumor Volume (Mean ± SEM),"NCI-H69 cells [1]; Day 42, intravenous, twice a week",32±8 mm3
same,Tumor Volume (Mean ± SEM),"NCI-H69 cells [1]; Day 46, intravenous, twice a week",16±12 mm3
same,"mice that achieved PR (partial response, tumor shrinkage by more than 50%)",NCI-H69 cells [1]; [3],2/6
same,mice with no change (tumor shrinkage by less than 50% or increase by less than 25%),NCI-H69 cells [1]; [3],1/6
same,TGI,NCI-H69 cells [2]; By Day 34,93.9%
same,tumor inhibition compared to the vehicle control group,"NCI-H69 cells [2]; By Day 34, p< 0.001",significant tumor inhibition
same,Tumor Volume (Mean),NCI-H69 cells [2]; Day 16,307 mm3
same,Tumor Volume (Mean),NCI-H69 cells [2]; Day 20,376 mm3
same,Tumor Volume (Mean),NCI-H69 cells [2]; Day 23,376 mm3
same,Tumor Volume (Mean),NCI-H69 cells [2]; Day 27,238 mm3
same,Tumor Volume (Mean),NCI-H69 cells [2]; Day 30,135 mm3
same,Tumor Volume (Mean),NCI-H69 cells [2]; Day 34,68 mm3

# Read-outs that look alike come from different tables or passages of the source. *1 amine or outer side, *2 acyl side, *3 side chain or, on linkers, in order; H or OH if unused. Where a SMILES comes first, the peptide text is derived from it. Bridges are numbered along the chain shown (N, C = ends). Roman numbers before positions name the chains, in order. [ ]: non-standard residue; d: D form. The star is where a group is joined. X1 = O=C(O)[C@H]1O[C@@H](Oc2ccc(COC(=O)[*:2])cc2N[*:1])[C@H](O)[C@@H](O)[C@@H]1O; Dolaproine = CO[C@@H]([C@@H]1CCCN1)[C@@H](C)C(=O)O; X3 = O=C(CCCCCN1C(=O)CC([*:1])C1=O)NCCC(=O)[*:2]; Dil = CC[C@H](C)[C@H](NC)[C@@H](CC(=O)O)OC; X2 = C[C@@H](N*)[C@@H](O)c1ccccc1; NMeV = CN[C@H](C(=O)O)C(C)C; AEEA = NCCOCCOCC(=O)O
